# Measurements published in PMC4336329 (PLoS ONE, 2015).
# Out of some 310,000 compounds screened, about 14,000 (4.5%) showed an effect of 50% or more. Effects have a minus sign here. The list shows a part of the results.
# Molecular target: human ether-à-go-go-related gene (hERG) potassium channel (human, UniProt Q12809)
# Experiment: primary screen, population patch clamp on CHO cells stably expressing hERG
# 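Note: peak tail current of the secondary pulse compared with the same well before compound.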
# Sequence of human ether-à-go-go-related gene (hERG) potassium channel (Q12809 whole entry, looked up): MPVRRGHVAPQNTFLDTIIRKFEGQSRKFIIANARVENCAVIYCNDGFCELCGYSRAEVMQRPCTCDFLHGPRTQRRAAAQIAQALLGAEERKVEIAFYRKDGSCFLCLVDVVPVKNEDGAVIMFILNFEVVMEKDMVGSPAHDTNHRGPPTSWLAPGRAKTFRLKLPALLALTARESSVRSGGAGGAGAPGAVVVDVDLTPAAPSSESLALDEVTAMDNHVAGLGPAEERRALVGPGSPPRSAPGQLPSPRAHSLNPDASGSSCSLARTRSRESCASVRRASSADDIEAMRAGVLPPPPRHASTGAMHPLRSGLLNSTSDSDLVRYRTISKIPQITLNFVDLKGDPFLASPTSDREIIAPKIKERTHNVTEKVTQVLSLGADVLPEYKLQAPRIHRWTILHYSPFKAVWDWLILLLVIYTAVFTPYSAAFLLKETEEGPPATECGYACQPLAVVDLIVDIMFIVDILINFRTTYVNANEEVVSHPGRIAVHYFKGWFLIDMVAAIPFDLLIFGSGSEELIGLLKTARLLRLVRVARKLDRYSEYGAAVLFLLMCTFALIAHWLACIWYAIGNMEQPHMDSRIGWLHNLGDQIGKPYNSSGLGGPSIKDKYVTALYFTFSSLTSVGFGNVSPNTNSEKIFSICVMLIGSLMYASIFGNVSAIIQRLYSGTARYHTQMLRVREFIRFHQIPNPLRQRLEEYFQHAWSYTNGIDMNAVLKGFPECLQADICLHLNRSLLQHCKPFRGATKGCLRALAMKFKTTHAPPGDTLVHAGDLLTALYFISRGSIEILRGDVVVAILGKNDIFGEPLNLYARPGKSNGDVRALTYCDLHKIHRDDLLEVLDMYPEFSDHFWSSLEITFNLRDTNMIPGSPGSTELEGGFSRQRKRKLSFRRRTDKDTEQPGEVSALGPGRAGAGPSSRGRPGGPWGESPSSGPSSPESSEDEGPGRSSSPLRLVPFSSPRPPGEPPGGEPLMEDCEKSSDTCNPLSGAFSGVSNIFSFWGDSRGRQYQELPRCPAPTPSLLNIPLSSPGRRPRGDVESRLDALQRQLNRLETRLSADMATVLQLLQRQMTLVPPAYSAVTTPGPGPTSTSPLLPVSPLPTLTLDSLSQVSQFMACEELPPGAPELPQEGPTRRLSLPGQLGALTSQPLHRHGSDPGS
row,SMILES,"hERG current change (%, negative = inhibition) at 10uM [%]"
1,CCN(Cc1ccccc1)C(c1ccccn1)c1nnnn1C(C)(C)CC (stereo not shown),-12.1
2,COCCc1ncc(CN2CCC(C(=O)Nc3ccc(-n4cccn4)cc3)CC2)cn1,6.84
3,CCOC(=O)C1=C(Cn2ccc(C(F)(F)F)n2)NC(=O)NC1c1ccc2c(c1)OCO2 (stereo not shown),-14.7
4,Cc1ccc(C)c(/C=C(\C(=O)O)c2ccc(S(=O)(=O)N3CCCCC3)s2)c1,8.44
5,CCOc1ccc(NC(=O)Cn2sc3nc(C)cc(C)c3c2=O)cc1,4.94
6,COc1ccccc1NC(=O)COc1ccc(C(F)(F)F)cc1[N+](=O)[O-],0.204
7,CCCOc1c(OC)cccc1C1CC(=O)Nc2cc3c(cc21)OCO3 (stereo not shown),-5.12
8,Cc1c(Cc2ccccc2)c(=O)n2c([nH]c3ccccc32)c1C#N,-1.13
9,Cc1cc2cc(C)c3nnc(SCC(=O)N4CCCc5ccccc54)n3c2cc1C,-12.3
10,CC1C(=O)CC(c2ccc([N+](=O)[O-])cc2)NC1c1ccc([N+](=O)[O-])cc1.Cl (stereo not shown),-69.7
11,CCOc1ccc(Nc2nc3ccccc3n2C)cc1,-13.5
12,Cc1ccc(C)c(Nc2nc3nonc3nc2N2CCOCC2)c1,1.04
13,CCCCCc1ccc(OCCC[n+]2ccccc2)c(CCCCC)c1.[Cl-],-75.7
14,O=C(O)c1ccc(S(=O)(=O)NCC2CCCO2)cc1 (stereo not shown),2.36
15,CCN(CC)P(=O)(Oc1ccccc1)Oc1ccccc1,-7.77
16,Cn1c(N)c(Br)c(-c2ccc(F)cc2)c(C#N)c1=O,7.23
17,O=C(Cn1ccc([N+](=O)[O-])n1)N1CCCCCC1,11.3
18,N#CC1=C(N)C(C#N)(C#N)C(c2cccnc2)C2CCCC=C12 (stereo not shown),-17.8
19,CC(NC(=O)c1ccco1)C1COc2ccccc2O1 (stereo not shown),5.35
20,O=C(Nc1nc(C2C3CC4CC(C3)CC2C4)cs1)c1cc2cc([N+](=O)[O-])ccc2oc1=O (stereo not shown),4.65
21,COc1ccc(CC(=O)N(CCN(C)C)CC2CCCN(Cc3ccccc3F)C2)cc1 (stereo not shown),-26.3
22,O=c1cc2c(nn1Cc1ccc(Cl)cc1)-c1ccccc1CC2,-13.6

row,SMILES,"hERG current change (%, negative = inhibition) at 10uM [%]"
1,Clc1ccc2c(c1)C(c1ccccc1Cl)=NCc1nnc(N3CCN(CCSc4ccccc4)CC3)n1-2.O.O=C(O)/C=C/C(=O)O,-66.5
2,CCN(Cc1ccccc1)C(=O)CCc1nc(CN2CCN(C(=O)c3ccc([N+](=O)[O-])cc3)CC2)no1,-64.2
3,O=C(Nc1cccc([N+](=O)[O-])c1)N1CCN(c2ccccc2)CC1,-38.7
4,Cn1c(=O)cc(SCC(=O)N2CCC3(CC2)OCCO3)c2ccc(Cl)cc21,-45.3
5,COc1ccc(NC(=O)CSc2ncnc3[nH]ncc23)cc1,1.95
6,O=C(/C=C/c1ccccc1)N1CCC(Cc2ccccc2)CC1,-24
7,COc1ccc(S(=O)(=O)N2CCCC(C(=O)N3CCOCC3)C2)cc1C (stereo not shown),-1.24
8,Cn1c(=O)n(C)c2cc(S(=O)(=O)NCc3ccccc3)ccc21,6.21
9,COc1cccc(CNCc2ccccn2)c1OC,5.32
10,CCOC(=O)CSCCOc1ccc(C=C2C(=O)NC(=O)NC2=O)cc1OC,16.4
11,CCOC(=O)c1[nH]c(C)c(C(=O)N2CCCC(Nc3ccc(C)c(C)c3)C2)c1C (stereo not shown),-4.07
12,COc1cc(CNc2ccc3[nH]c(=O)[nH]c3c2)ccc1OCC(=O)NC(C)(C)C,9.86
13,CNc1nc(Nc2ccc(C)c(Cl)c2)c2cnn(C)c2n1,15.5
14,Cc1cc(Br)ccc1OCC(=O)NNC(=O)c1ccc(NC(=O)C2CC2)cc1,3.71
15,COc1ccc(N(C(=O)c2ccncc2)S(=O)(=O)c2cccs2)cc1,-13.3
16,O=C(/C=C/c1ccccc1)NCC(=O)N/N=C\c1cccnc1,-10.9
17,COc1cccc(N(CC(=O)NC2CCCC2)C(=O)Cn2nnc(-c3ccc(C)cc3)n2)c1,16.1
18,O=C1N[C@@H](Cc2ccccc2)C(=O)N2[C@@H]1C[C@@]1(Br)c3ccccc3N(S(=O)(=O)c3ccccc3)[C@@H]21,-4.24
19,O=C(/C=C/c1cccs1)c1ccc(N2CCOCC2)cc1,22
20,COc1ccc(-c2nnc(SCC(=O)N3c4ccccc4Sc4ccccc43)o2)cc1,8.54
21,CCOC(=O)c1ccc(NC(=O)c2ccc3c(c2)C(=O)N(Cc2cccnc2)C3=O)cc1,5.98
22,CC(C)NC(=O)CCS(=O)(=O)c1ccc(Br)s1,16.1

row,SMILES,"hERG current change (%, negative = inhibition) at 10uM [%]"
1,O=C(NC(=S)Nc1ccc(N2CCOCC2)cc1)c1cccc([N+](=O)[O-])c1,7.28
2,O=C(/C=C/c1cn(-c2ccccc2)nc1-c1cccc(Cl)c1)N1CCN(c2ccccn2)CC1,5.73
3,COCCCn1c(SCC(=O)NNC(=O)c2cccc(O)c2)nnc1-c1ccncc1,5.74
4,COc1cc(C2C(C#N)=C(N)N(Nc3ccccc3)C3=C2C(=O)CC(C)(C)C3)ccc1OCc1ccccc1 (stereo not shown),15.5
5,COCCNC(=O)C(c1ccco1)N(C(=O)Cn1nnc2ccccc21)c1ccccc1C (stereo not shown),-4.39
6,COc1ccccc1N1CCN(C(=O)c2cc3c(=O)n4cccc(C)c4nc3s2)CC1,-11.2
7,CC(NC(=O)C[n+]1cccc(Br)c1)c1ccccc1.[Cl-] (stereo not shown),17.6
8,CC(C)OC(=O)c1cccnc1N1CCN(c2cccc(Cl)c2)CC1,7.99
9,Cc1nonc1NC(=O)OC1CCCCC1,1.97
10,CCN(CC)CCNC(=O)c1ccc(NC(=O)c2ccc(Cl)c(S(=O)(=O)N3CCCCCC3)c2)cc1.Cl,-24
11,Cc1ccccc1-c1nc(CS(=O)(=O)CC(=O)N2CCOCC2)c(C)o1,3.45
12,COc1ccc(-n2c(Cc3cccn3C)nnc2SCC(=O)Nc2ccccc2F)cc1,-53.7
13,COC(=O)CC1SC(=O)NC1=Nc1ccc(OC)cc1 (stereo not shown),1.66
14,Cc1ccc(OCC(=O)Sc2ccc(C)cc2)cc1,17.2
15,NC(=O)NNc1cccc(Cl)n1,21.4
16,CCCCN(C)C(=O)c1ccc(CS(=O)(=O)c2ccccc2C)o1,-27.2
17,COc1ccc(NC(=O)c2ccc(OC(=S)N(C)c3ccc(OC)cc3)cc2)cc1,13.3
18,COc1ccc(/C(C)=N/NC(=O)c2ccc(N(C)C)cc2)cc1,-11.8
19,COCCCNC(=O)c1cc(C(=O)c2c(-c3c(Cl)cccc3Cl)noc2C)c[nH]1,-3.65
20,CCC(C)(C)n1nnnc1C(c1ccncc1)N1CCC(Cc2ccccc2)CC1 (stereo not shown),-43
21,CCc1c(C)nc2ncnn2c1N1CCCC(C(=O)NCc2ccc3c(c2)OCO3)C1 (stereo not shown),-37.4
22,Cc1ccc(NC(=S)NCc2ccccc2)cc1S(=O)(=O)N1CCCCC1,5.69

row,SMILES,"hERG current change (%, negative = inhibition) at 10uM [%]"
1,CCOc1ccccc1C(=O)NCC(=O)OCC(=O)N1C(C)CCCC1C (stereo not shown),-0.108
2,CCC1=Nc2cc(C(=O)NCCCN3CCOCC3)ccc2Sc2ccc(Br)cc21,1.96
3,Cc1noc(C)c1COC(=O)c1ccc2c(c1)S(=O)(=O)c1ccccc1C2=O,-0.375
4,O=C(NCc1cccnc1)c1sc2cc(Cl)ccc2c1Cl,-55.4
5,Cn1[nH]c(C(F)(F)F)c(C=NCc2ccc(Cl)cc2)c1=O,-8.29
6,COc1cccc(C2CC(c3c(Cl)cccc3Cl)n3nc(N)nc3N2)c1 (stereo not shown),7.93
7,Cc1ccc(S(=O)(=O)N(C)c2ccc(NS(C)(=O)=O)cc2)cc1,-42.2
8,CC1(C)Cc2nc3oc4c(=O)n(CC(=O)Nc5cccc(Cl)c5)cnc4c3cc2CO1,17.8
9,O=C(CSc1ncccn1)N1CCCc2ccccc21,-0.261
10,CN(CCO)C1=NS(=O)(=O)c2cc([N+](=O)[O-])ccc21,14.7
11,CC(C)CC(=O)Nc1cccc2c1C(=O)N(c1ccccc1)C2=O,6.31
12,Oc1c(C(c2cccs2)N2CCN(c3cccc(Cl)c3)CC2)sc2ncnn12 (stereo not shown),-26.5
13,C/C(=N/N=C1/NC(=O)CC(C(=O)O)S1)c1ccccc1 (stereo not shown),11.1
14,Cc1ccccc1/C=c1\s/c(=C\C(=O)C(C)(C)C)[nH]c1=O,10.4
15,CCN(CC)S(=O)(=O)N1CCC(C(=O)N2CCC3(CC2)OCCO3)CC1,21.5
16,Cc1nnc(C)c2c(C)n(-c3cccc4cccnc34)c(C)c12,6.71
17,O=c1cc(CSc2n[nH]c(-c3ccncc3)n2)nc2sccn12,13.9
18,COc1ccc(C(=O)NNC2=NS(=O)(=O)c3ccccc32)cc1OC,18.7
19,Cc1nnc(SCC(=O)Nc2ccccc2C(=O)NC2CC2)s1,-1.9
